Hit rate of the full screen: of about 39,000 compounds, about 220 (0.56%) showed activity. Some of the results follow.
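Further: static incubation at 37 °C against the wild-type strain, values averaged over two biological replicates.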

The subject of this assay is Escherichia coli K-12 BW25113. The assay is described as follows: relative growth (OD600 normalised to plate interquartile mean) (fraction); higher = less growth inhibition, active = 0.2 or less. To be noted: 50 µM; LB; incubation time: overnight (16-24 h).
`C[C@H](CO)N1C[C@H](C)[C@@H](CN(C)S(=O)(=O)c2ccc(Cl)cc2)OCCCC[C@H](C)Oc2ccc(NC(=O)Nc3ccc(C(F)(F)F)cc3)cc2C1=O`: the relative growth is inactive: 1.01.

Take `C[C@H]1CN([C@@H](C)CO)C(=O)c2ccccc2-c2ccccc2CO[C@H]1CN(C)Cc1ccccc1C(F)(F)F`: the relative growth is inactive: 1.03. The figure for `C[C@H](CO)N1C[C@H](C)[C@H](CN(C)S(C)(=O)=O)Oc2ccc(NC(=O)Cn3cnnn3)cc2CC1=O` is inactive: 0.991. To `CCNC(=O)[C@@H]1CCCN1C(=O)[C@H](CCCNC(=N)N)NC(=O)[C@H](CC(C)C)NC(=O)[C@@H](COC(C)(C)C)NC(=O)[C@H](Cc1ccc(O)cc1)NC(=O)[C@H](CO)NC(=O)[C@H](Cc1c[nH]c2ccccc12)NC(=O)[C@H](Cc1cnc[nH]1)NC(=O)[C@H]1CCC(=O)N1` belongs inactive: 1. As to `Cc1noc(C)c1NC(=O)Nc1ccc2c(c1)CC(=O)N([C@H](C)CO)C[C@H](C)[C@H](CN(C)S(=O)(=O)c1cccs1)O2`, the relative growth is inactive: 1.02. The figure for `Cc1cc(C(=O)Nc2cccc3c2O[C@@H](CN(C)Cc2ccc(Oc4ccccc4)cc2)[C@H](C)CN([C@@H](C)CO)C3=O)n(C)n1` is inactive: 0.98; for `Cc1ccc(C#N)c(SCC(N)=O)n1` it is inactive: 1.

Regarding `C[C@@H]1CN([C@H](C)CO)C(=O)CCCn2nncc2CO[C@H]1CN(C)C(=O)Nc1ccc2c(c1)OCO2`, the relative growth is inactive: 0.975. Regarding `Cc1ccc(S(=O)(=O)N(C)C[C@H]2Oc3ccc(NS(=O)(=O)c4ccc(F)cc4)cc3C(=O)N([C@@H](C)CO)C[C@H]2C)cc1`, the relative growth is inactive: 0.994. As for `COc1ccc(CN(C)C[C@H]2Oc3ccc(NS(=O)(=O)c4cn(C)cn4)cc3CC(=O)N([C@@H](C)CO)C[C@@H]2C)cc1`, the relative growth was inactive: 0.964. With `CC(=O)[C@@H](OC(=O)CS(C)(=O)=O)C(=O)NCc1ccccc1`, the relative growth is inactive: 0.885. The figure for `CCC[C@H]1CCCCCCCCCC(=O)O[C@@H]2[C@@H](O1)O[C@H](C)[C@H](O)[C@@H]2O[C@H]1O[C@@H](CO)[C@@H](O[C@@H]2O[C@@H](C)[C@H](O)[C@@H](O)[C@H]2OC(=O)[C@@H](C)CC)[C@@H](O)[C@@H]1O` is inactive: 0.974; for `C[C@H](CO)N1C[C@H](C)[C@@H](CN(C)S(=O)(=O)c2cn(C)cn2)Oc2ccc(NS(=O)(=O)c3cn(C)cn3)cc2C1=O` it is inactive: 0.954; for `C[C@@H]1CCCCO[C@H](CN(C)Cc2ccc(C(F)(F)F)cc2)[C@H](C)CN([C@@H](C)CO)C(=O)c2cc(NC(=O)Cc3ccccc3)ccc2O1` it is inactive: 1.04. For the compound `Cn1cnc(S(=O)(=O)N2C[C@H](O)COC[C@@H]3O[C@H](CC(=O)NCc4ccc(F)cc4)CC[C@H]32)c1`, the relative growth was inactive: 0.997.

Regarding `CC(C)NC(=O)N(C)C[C@H]1Oc2ccc(NC(=O)Cc3ccccc3)cc2CC(=O)N([C@H](C)CO)C[C@@H]1C`, the relative growth is inactive: 0.99.

As to `N#Cc1c(N)nc(SCc2csc(-c3ccc(Cl)cc3)n2)c(C#N)c1-c1ccc(OCCO)cc1`, the relative growth was inactive: 0.996.

On to `O=C(NCCN1CCOCC1)c1cccs1`, for which the relative growth was inactive: 1.04. In the case of `CCC(=O)N1CCN(c2ccc(-n3c(=O)ccc4cnc5ccc(-c6cnc7ccccc7c6)cc5c43)cc2C(F)(F)F)CC1`, the relative growth is inactive: 0.99. The figure for `O=C(C1=C[C@H](c2ccc(Br)cc2)C[C@H](OCc2ccc(CO)cc2)O1)N1CCN(Cc2ccccc2)CC1` is inactive: 1.01. To `COc1ccc(S(=O)(=O)Nc2ccc3c(c2)C(=O)N([C@@H](C)CO)C[C@H](C)[C@H](CN(C)S(=O)(=O)c2cn(C)cn2)O3)cc1` belongs inactive: 1.01.

Regarding `CO[C@@H]1CN(C)C(=O)c2cc(NC(=O)C3CCCCC3)ccc2OC[C@@H](C)N(C(=O)Nc2ccc(C(F)(F)F)cc2)C[C@H]1C`, the relative growth was inactive: 0.976.

On to `CCOc1nc(N)cc(N)c1C#N`, for which the relative growth is inactive: 0.908.

Consider `COc1ccc(NC(=O)N(C)C[C@@H]2Oc3ccc(NS(C)(=O)=O)cc3CC(=O)N([C@@H](C)CO)C[C@@H]2C)cc1`, for which the relative growth was inactive: 1.02. With `C[C@@H](O)C#Cc1ccc2c(c1)O[C@@H](CN(C)C(=O)CN(C)C)[C@@H](C)CN([C@@H](C)CO)S2(=O)=O`, the relative growth was inactive: 0.966. As for `C[C@H](CO)N1C[C@H](C)[C@H](CN(C)C(=O)Nc2cccc3ccccc23)Oc2ncc(C#Cc3ccc(F)cc3)cc2C1=O`, the relative growth is inactive: 0.982. For the compound `O=C(N[C@@H]1C=C[C@H](CC(=O)N2CCOCC2)O[C@H]1CO)c1ccccn1`, the relative growth is inactive: 1. Regarding `COc1ccc([C@H]2CC=CC[C@H](C)Oc3ccccc3C(=O)N(C)[C@H](Cc3ccccc3)C(=O)N2)c(OC)c1`, the relative growth was inactive: 1.01.

As for `CO[C@H]1CN(C)C(=O)c2cc(NS(=O)(=O)c3ccccc3)ccc2OC[C@@H](C)N(C(=O)NC(C)C)C[C@H]1C`, the relative growth was inactive: 0.984. The figure for `C[C@@H]1CCCCO[C@@H](CN(C)C(=O)c2ccccc2)[C@H](C)CN([C@@H](C)CO)C(=O)c2cc(NC(=O)Nc3ccc4c(c3)OCO4)ccc2O1` is inactive: 1.01; for `COC(=O)c1cc(-c2ccccc2)oc1CN` it is inactive: 1.02.

In the case of `Cc1noc(C)c1S(=O)(=O)Nc1ccc2c(c1)C(=O)N([C@H](C)CO)C[C@@H](C)[C@H](CN(C)C(=O)NC(C)C)O2`, the relative growth is inactive: 0.962. For the compound `C[C@H](CO)N1C[C@H](C)[C@H](CN(C)Cc2ccc(C(=O)Nc3ccccc3N)cc2)Oc2ccc(NC(=O)Cc3cn(C)c4ccccc34)cc2C1=O`, the relative growth was inactive: 0.993. The figure for `C[C@H](CO)N1C[C@H](C)[C@H](CN(C)S(C)(=O)=O)Oc2ccc(NS(C)(=O)=O)cc2C1=O` is inactive: 0.986. Turning to `C[C@]1(O)CC[C@@H]2C(C(=O)O)=CO[C@@H](O[C@@H]3O[C@H](COC(=O)/C=C/c4ccc(O)c(O)c4)[C@@H](O)[C@H](O)[C@H]3O)[C@@H]21`, the relative growth was inactive: 1.02. `C=CCN1C(=O)[C@]2(O[C@H](CCO)[C@@H]([Si](C)(C)c3ccc(OC)cc3)[C@@H]2C)c2cc(N3C(=O)c4cccc5cccc3c45)ccc21`: the relative growth was inactive: 1.03. The figure for `C[C@@H]1CN([C@@H](C)CO)C(=O)c2cccc(NC(=O)C3CCOCC3)c2O[C@H]1CN(C)S(=O)(=O)c1cn(C)cn1` is inactive: 1.01.
